The text below walks through data of the supplement of paper PMC3334620.

Whole data set: some 33,000 sequences, median “E-score (-0.5 to 0.5)” near -0.021, cut for the highest 2% near 0.32. Some of the results follow.

The target of this test is T1, Zap1 (UniProt P47043).
T1 sequence: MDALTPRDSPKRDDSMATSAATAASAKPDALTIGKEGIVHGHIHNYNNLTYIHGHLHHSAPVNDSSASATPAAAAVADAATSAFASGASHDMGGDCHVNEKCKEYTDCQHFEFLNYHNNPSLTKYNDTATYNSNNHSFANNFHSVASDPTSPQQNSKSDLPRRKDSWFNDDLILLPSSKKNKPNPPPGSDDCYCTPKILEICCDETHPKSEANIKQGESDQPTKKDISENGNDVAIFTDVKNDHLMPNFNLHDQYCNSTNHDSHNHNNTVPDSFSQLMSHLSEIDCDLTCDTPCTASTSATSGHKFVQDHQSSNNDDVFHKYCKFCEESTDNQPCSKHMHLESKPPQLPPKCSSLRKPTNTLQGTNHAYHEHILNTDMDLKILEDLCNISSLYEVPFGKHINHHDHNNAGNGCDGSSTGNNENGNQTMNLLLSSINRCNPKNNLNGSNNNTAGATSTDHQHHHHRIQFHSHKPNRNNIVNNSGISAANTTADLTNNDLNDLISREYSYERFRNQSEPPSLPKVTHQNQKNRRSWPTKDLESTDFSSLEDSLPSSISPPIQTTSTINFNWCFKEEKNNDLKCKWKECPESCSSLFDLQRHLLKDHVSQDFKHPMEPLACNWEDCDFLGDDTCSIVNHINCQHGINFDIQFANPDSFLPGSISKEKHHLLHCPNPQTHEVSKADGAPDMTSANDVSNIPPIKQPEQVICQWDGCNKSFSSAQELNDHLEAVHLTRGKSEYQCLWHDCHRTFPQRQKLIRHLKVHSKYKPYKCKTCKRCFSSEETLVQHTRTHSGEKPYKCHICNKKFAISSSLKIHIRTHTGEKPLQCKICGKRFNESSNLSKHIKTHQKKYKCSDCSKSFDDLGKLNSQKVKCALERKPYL
Briefly: PBM E-score (8-mer binding enrichment) (E-score (-0.5 to 0.5)); higher = stronger / more preferred TF binding; most listed sequences are background and not binding sites. As to conditions: protein concentration: 200 nM; construct: GST-full length. An outline of the steps: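 Full-length yeast transcription factors or their DNA-binding domains, GST-tagged and expressed with PURExpress, were applied at about 100-200 nM to universal all-10-mer Agilent arrays. These arrays had been made double-stranded by primer extension on fresh or once-stripped slides. Detection used fluorescent anti-GST, normalisation used masliner, and E-scores for ungapped eight-base words pooled with reverse complements came from the Universal PBM Analysis Suite.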
Turning to AGCCGACG, the “PBM E-score” value was -0.253.

Consider TCAAGCAA, for which the “PBM E-score” value is -0.0274.

Turning to CCGCGTGA, the “PBM E-score” value came to 0.133.

Regarding CTTCGGGA, the “PBM E-score” value was -0.193.

Consider ACAATGGT, for which the “PBM E-score” value was found to be 0.0633.

GAATGGTC: the “PBM E-score” value is -0.0042.

As to CCATAGTC, the “PBM E-score” value was -0.0427.

AAGCGATT: the “PBM E-score” value is -0.125.

Turning to ATTCCAGG, the “PBM E-score” value was 0.00142.

Consider AACCCCAA, for which the “PBM E-score” value was found to be 0.377.

For the sequence ACCTGTAC, the “PBM E-score” value came to 0.193.

Consider AGACCTCG, for which the “PBM E-score” value came out at 0.225.

Turning to CCCGTCCA, the “PBM E-score” value was -0.211.

For the sequence GATAAGTA, the “PBM E-score” value worked out at 0.114.

CCCGCATC: the “PBM E-score” value is -0.137.

Consider GATCCGCA, for which the “PBM E-score” value is -0.163.

With CGAACGAC, the “PBM E-score” value was -0.12.

Consider CCTGACAA, for which the “PBM E-score” value was -0.00831.

With TACGGCAA, the “PBM E-score” value is -0.17.

As to AGGCTGTC, the “PBM E-score” value was -0.202.

Consider CCAGGGTC, for which the “PBM E-score” value was 0.19.

Consider AAATATTA, for which the “PBM E-score” value was 0.133.

ACGAGGTA: the “PBM E-score” value was found to be 0.244.

As for CCGTCGAA, the “PBM E-score” value is -0.0856.

Turning to ATCAATCC, the “PBM E-score” value was -0.0813.

With CAACAATG, the “PBM E-score” value came to 0.00437.

On to CGTTCCCA, for which the “PBM E-score” value was -0.125.

In the case of CCGATTGC, the “PBM E-score” value is -0.0985.

As for CATATTTC, the “PBM E-score” value worked out at 0.0387.

In the case of GTGGACAC, the “PBM E-score” value came to 0.109.

Take CCCCATAG: the “PBM E-score” value was 0.201.

Take ATAGTCCA: the “PBM E-score” value was found to be 0.103.

Consider AGCATCAG, for which the “PBM E-score” value is -0.184.

CTATAGGC: the “PBM E-score” value is -0.0315.

Take CTTGAAAG: the “PBM E-score” value worked out at 0.11.

As to CCACCGAG, the “PBM E-score” value is -0.0392.

On to GCGCGAGC, for which the “PBM E-score” value was -0.141.

As for ACACTATG, the “PBM E-score” value is -0.106.

As to GGGCAACC, the “PBM E-score” value came out at 0.0413.

On to ACTTGTAT, for which the “PBM E-score” value was determined as 0.0311.

For the sequence AGCTCAAG, the “PBM E-score” value was -0.123.

On to CCGCAAAC, for which the “PBM E-score” value stood at 0.231.

Consider TACCCAAA, for which the “PBM E-score” value stood at 0.312.

With CTCACTCC, the “PBM E-score” value is -0.225.

For the sequence GGGGTGAC, the “PBM E-score” value stood at 0.337.

CTGAGTTC: the “PBM E-score” value came out at 0.0158.

Consider GCACGCGA, for which the “PBM E-score” value is -0.0965.

As for CTAAGTCC, the “PBM E-score” value is -0.137.

Consider CAGAACGC, for which the “PBM E-score” value is -0.139.

In the case of GAACCCGA, the “PBM E-score” value stood at 0.0725.

For GCACTACC, the “PBM E-score” value was 0.187.

In the case of AAGCAGCG, the “PBM E-score” value was -0.00408.

As for ACAGTCGA, the “PBM E-score” value is -0.115.

For AGGTAACA, the “PBM E-score” value worked out at 0.344.

As for GAATGAAC, the “PBM E-score” value stood at 0.0344.

GCAATCCC: the “PBM E-score” value turned out to be 0.00865.

In the case of AAAAGAAA, the “PBM E-score” value turned out to be 0.0969.

Consider CGCGAACC, for which the “PBM E-score” value came to 0.0111.

As to ATTCCTGC, the “PBM E-score” value is -0.0866.

For the sequence AAGTTTTC, the “PBM E-score” value stood at 0.155.

Take CGACAAAG: the “PBM E-score” value is 0.0303.

For CTGTTCTC, the “PBM E-score” value was -0.244.

On to GAGTCTCC, for which the “PBM E-score” value is -0.179.

For the sequence CCCTCGGC, the “PBM E-score” value was -0.137.

For CAAATCTA, the “PBM E-score” value came out at 0.00251.

As to GCAAACAC, the “PBM E-score” value was -0.107.

ACGCAAAG: the “PBM E-score” value was -0.0402.

As for AAAGTCCT, the “PBM E-score” value is 0.0317.

For ACGACTTG, the “PBM E-score” value was -0.209.

On to GTGTCTAA, for which the “PBM E-score” value was determined as 0.155.

As to AAGGGAGT, the “PBM E-score” value was -0.213.

For the sequence CATGAAGA, the “PBM E-score” value came to 0.0464.

On to GTCCTATA, for which the “PBM E-score” value is -0.189.

With AGACGAAG, the “PBM E-score” value is -0.131.

Take AACGTGGA: the “PBM E-score” value is -0.0402.

In the case of CGACGATA, the “PBM E-score” value turned out to be 0.0164.

Take AAATGCAA: the “PBM E-score” value stood at 0.115.

CGCGTATC: the “PBM E-score” value was determined as 0.0418.

Turning to AGGTAATC, the “PBM E-score” value came out at 0.189.

For ATTCCGGG, the “PBM E-score” value came to 0.0348.

Take AGTTCTGA: the “PBM E-score” value is 0.0719.

For AAAGGGCA, the “PBM E-score” value is -0.0435.

With TGGGAACA, the “PBM E-score” value is -0.173.

Consider CAACTTCA, for which the “PBM E-score” value was -0.00642.

Take ATAAGACA: the “PBM E-score” value was -0.0362.

As for CTGCTTAC, the “PBM E-score” value is -0.0264.
